From PubChem BioAssay AID1508624 (National Center for Advancing Translational Sciences (NCATS), 2021)
Out of some 48,000 compounds screened, about 120 (0.25%) were called active. Inconclusive results (about 4%) are left out. The call rests on the fitted dose curve; in most records, active means well fitted activation curve with a large enough effect; inconclusive means small, poorly fitted or top-dose-only effect, or another doubt; inactive means no such curve, though single readings can be large or run the other way. This is one part of the list.

experiment: Primary qHTS for Identification of Small Molecule Activators of Huntingtin-Antisense Promoter Activity; settings: HEK293 HTT-AS promoter firefly luciferase reporter, 24 h; series mostly up to 57.5 µM; activity change, positive = activation: at the top concentration; further: nearly all actives have a fitted effect of over 55% in size
Outline: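 HEK293 Fluc reporter, 2,500 cells/well, 24 h pre-culture; cpds up to 57.5 uM final, 24 h 37 degrees C; Dual-Glo, 10 min RT; normalized vehicle = 0%, zero RLU = -100%.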

Activity change, positive = activation, inactive:
CC(C)c1ccc(NC(c2nnc(-c3ccccc3)o2)c2ccc(F)cc2Cl)cc1 (stereo not drawn) -26.4%
COc1ccc(-c2cc(C(F)(F)F)n3nc(C(=O)O)c(Cl)c3n2)cc1OC -4.71%
CCOc1ccc(NC(=O)Cn2cc(C(=O)c3ccc(F)cc3)c(=O)c3cc4c(cc32)OCCO4)cc1 -8.87%
CC(=O)c1cc(-c2ccccc2)n(CCC(=O)Nc2ccc(C(C)C)cc2)c1C -33.7%
Cc1ccc(-n2ncc(C(=O)N3CCN(Cc4ccccc4)CC3)c2C2CCN(C(=O)OC(C)(C)C)CC2)cc1 -37.2%
COc1ccc(NC(=O)Cn2cnc3ccc(S(=O)(=O)N4CCC(C)CC4)cc3c2=O)cc1Cl -17.7%
CC(C)(C)OC(=O)N1CCC(c2c(C(=O)NCCN3CCCC3)cnn2-c2ccc(Cl)cc2)CC1 -13.2%
Cc1ccc(NC(=O)/C=C/c2ccc(Cl)cc2)c(Br)c1 -6.46%
COc1cc(C2CC(=O)c3c([nH]c(C(=O)OCc4ccc(C)cc4)c3C)C2)cc(OC)c1OC (stereo not drawn) -48%
Cc1cccc(C(c2sc3nc(-c4ccco4)nn3c2O)N2CCN(Cc3ccccc3)CC2)c1 (stereo not drawn) -10.3%
CCOC(=O)c1ccccc1NC(=O)Cn1c(=O)n(CCC(=O)N2CCc3ccccc3C2)c(=O)c2ccccc21 -27.1%
COc1ccccc1-c1nnc(C2CCN(C(=O)c3cccc(Cl)c3)CC2)o1 -8.7%
COc1cc(NC(=O)c2cc(Cl)ccc2Cl)ccc1NC(=O)c1cc2ccccc2o1 -21.6%
CN(C)c1ccc(CNC(=O)c2cnc3sc(N4CCCC4)nn3c2=O)cc1 -10.4%
COCCCNC(=O)c1[nH]c2ccccc2c1Sc1ccc(C)cc1 0.181%
Cc1ccccc1NC(=O)Cn1c(=O)n(CCCCCC(=O)NCc2ccccc2Cl)c(=O)c2sccc21 -27%
CCS(=O)(=O)N1CCc2cc(C(=O)NCc3ccc(Cl)cc3)ccc21 -26.3%
CCOc1ccc(OCc2ccc(C(=O)Nc3cc(OC)c(OC)c(OC)c3)o2)cc1 7.19%
CC(C)c1ccc(-c2noc(SCC(=O)N3CCN(c4ccc(F)cc4)CC3)n2)cc1 -51.4%
O=C(CCc1ccccc1)N(Cc1cccnc1)c1nc2c(F)cc(F)cc2s1 -41.4%
Cc1ccc(C)c(NC(=O)N(C)CCc2c(C)nn(C)c2C)c1 0.458%
COc1ccc(CCNS(=O)(=O)c2cc(-c3cc(C)no3)ccc2OC)cc1OC -2.6%
Cc1ccc(N2CC(C(=O)NCCS(=O)(=O)N3CCN(c4ccccc4)CC3)CC2=O)cc1C (stereo not drawn) 10.4%
Cc1ccc(C)c(Nc2nn3c(=O)c4ccc(C(=O)NCCC5=CCCCC5)cc4nc3s2)c1 -20.7%
CCNc1nc(N)nc(Oc2ccc(OCC(=O)OC)nn2)n1 -7.17%
CCN(CC)CCNc1ncnc2c1cnn2-c1cc(Cl)ccc1C -12%
CCOc1ccc(-c2nc(CNC(=O)NC3CCCCC3)c(C)o2)cc1 -8.29%
Cc1ccc(C(=O)Nc2nc3nc(C)cc(=O)n3[nH]2)cc1 -8.07%
COc1cccc(CNC(=O)CSc2nc(=O)[nH]c3c2CCC3)c1 -4.49%
CCCN(C(=O)C(=O)Nc1ccc2nc3n(c(=O)c2c1)CCCCC3)c1ccc(OCC)cc1 -18.9%
CCOc1ccccc1C(=O)Nc1cccc2ccc(C)nc12 -30.5%
CCc1nnc(NS(=O)(=O)c2ccc(N)cc2)s1 -3.3%
COc1ccc(CCNc2nc3ccc(Cl)cc3n3cnnc23)cc1OC -6.78%
Cc1cccc2nc(-c3ccc(N(C)C)cc3)c(Nc3ccc4c(c3)OCO4)n12 27.3%
O=C(NCCc1csc(-c2ccc(Cl)cc2)n1)c1ccco1 -22%
COc1cccc(-c2nnc3n(Cc4ccc(C)cc4)c(=O)c4ccccc4n23)c1O -15.2%
CCCCN(Cc1cccs1)S(=O)(=O)c1cc(-c2cc(C)no2)ccc1C -36.8%
CCN1CCN(c2csc3ccc(F)cc3c2=O)CC1 15.1%
Cc1cccn2c(=O)cc(CSc3nnc(NC(=O)COc4ccc(F)cc4)s3)nc12 -2.03%
COc1ccc(-c2nc3scc(CCNS(=O)(=O)c4c(C)noc4C)n3n2)cc1OC -13.6%
COc1cccc(CNC(=O)c2[nH]c3cc(C)ccc3c2Sc2ccccc2)c1 14.7%
CCOC(=O)c1c(S(=O)(=O)NCC(=O)N2CCN(c3cccc(Cl)c3)CC2)c(C)n(C)c1C -29.2%
O=C(Cc1ccccc1)N(Cc1cccnc1)c1nc2ccc(Cl)cc2s1 -13.2%
CCCOc1ccc(C(=O)Nc2ccc3oc(-c4ccc5ccccc5c4)nc3c2)cc1 14.3%
COc1ccc(NC(=O)c2ccc3c(SCC(=O)O)c4c(nc3c2)CCCC4)cc1OC -11.6%
CC(=O)c1cccc(NC(=O)CSc2nnc3ccc(-c4ccc(F)cc4)nn23)c1 10.5%
O=C(NCCc1ccccc1)c1cc(-c2ccc(Br)cc2)on1 -1.15% [at 11.5 µM, percent change from vehicle, -100% = no light]
CCOC(=O)c1c(C)oc2ncnc(N3CCN(c4ccc(C)cc4C)CC3)c12 1.11%
Cc1sc2ncn(CC(=O)Nc3ccc(F)cc3Cl)c(=O)c2c1S(=O)(=O)N1CCN(c2ncccn2)CC1 -10%
CCOC(=O)c1cccc(-n2nnc3c(sc4nc(C)c(Br)c(C)c43)c2=O)c1 0.793%
O=C(Nc1ccc(Br)cc1F)c1cc(S(=O)(=O)NC2CCCC2)ccc1F -21.7%
Cn1c(=O)c2c(nc(Oc3ccc(C#N)cc3)n2Cc2ccc(Cl)cc2Cl)n(C)c1=O -13.5%
CCOC(=O)c1ccccc1NC(=O)Cn1c(=O)n(CCC(=O)NCc2ccccc2OC)c(=O)c2ccccc21 -7.2%
O=C(Nc1ccc(F)cc1)N1CCN(c2ccc3nnc(-c4ccc(F)cc4)n3n2)CC1 -23.5%
Cc1ccc(-n2nnc(-c3nsc(NC(=O)c4ccccc4C)n3)c2C)cc1Cl 4.25%
CCOc1ccc(Nc2c(S(=O)(=O)c3ccc(Cl)cc3)cnc3ccc(OC)cc23)cc1 -28.4%
Cc1ccc(CNC(=O)C2CCN(C(=O)c3ccc(-n4ccc5ccccc54)s3)CC2)cc1 -10.7%
COc1ccc(-c2c3c(=O)n(C)c(=O)n(C)c3cn2-c2cccc(N)c2)cc1 -5.51%
CCOC(=O)CC(NC(=O)CCc1c(C)nc2c(-c3ccccc3)c(C)nn2c1C)c1ccc(C)cc1 (stereo not drawn) -45.5%
COc1ccc(Cn2ccc3nc(C)c(C(=O)Nc4ccc(F)cc4)cc3c2=O)cc1 -19.6%
COCCCNC(=O)c1[nH]c2cc(OC)ccc2c1Sc1ccc(C)cc1 3.98%
CCn1cc(C(=O)NCCc2ccc(Cl)cc2)c(=O)c2cc(S(=O)(=O)N3CCc4ccccc4C3)ccc21 -4.04%
COc1ccccc1NC(=O)c1oc2ccccc2c1NC(=O)C(C)C 11.1%
Cc1cccc(NC(=O)CSc2nnc3scc(-c4ccccc4)n23)c1 -11.1%
O=C1CCc2cc(S(=O)(=O)NCc3ccc(Cl)cc3)cc3c2N1CC3 -2.16%
COc1cccc(-c2nnc(-c3cc4cc(Cl)ccc4oc3=O)o2)c1 7.45% [at 11.5 µM, percent change from vehicle, -100% = no light]
CN(C)CCN1CCN(c2cccc(Cl)c2)C1=O 0.241%
COc1cc(-c2noc(CSc3nc(-c4ccc(F)cc4)cc(=O)[nH]3)n2)cc(OC)c1OC -13.1%
COc1ccccc1NC(=O)Cn1cnc2c(nc3n2CCCCC3)c1=O 4.12%
CCC1CCC(C(=O)NC(C(=O)NCCN(CC(C)C)CC(C)C)C(C)C)CC1 (stereo not drawn) -2.75%
Cc1ccccc1CNC(=O)c1ccccc1NC(=O)c1nsc2ccccc12 12.3%
CC(C)(C)c1ccc(CSc2nc3c(c(=O)[nH]2)CCCC3)cc1 -32.2%
O=C(Nc1ccc(Cl)c(C(F)(F)F)c1)C1CCCN(S(=O)(=O)c2cccc3cccnc23)C1 (stereo not drawn) 2.65%
CC1CCN(S(=O)(=O)c2ccc3c(c2)c(=O)c(C(=O)NCc2ccc(Cl)cc2)cn3C)CC1 4.25% [at 11.5 µM, percent change from vehicle, -100% = no light]
O=c1c(N2CCN(c3cccc(C(F)(F)F)c3)CC2)csc2ccccc12 -23.1%
Clc1ccccc1Cn1cccc1C1=NC(Cc2ccccc2)CO1 (stereo not drawn) -8.72%
Cn1c(SCC(N)=O)nc2c([nH]c3ccccc32)c1=O 13.3%
O=C(O)c1ccc(Nc2nc(-c3ccccc3)c3cc(Br)ccc3n2)cc1 -38.3%
Cc1cccc(NC(=O)CSc2nc3ccc(NC(=O)COc4ccc(Cl)cc4)cc3s2)c1 -39.5%
Cc1c(NC(=O)Cc2ccc(F)cc2)cccc1-c1nc2cccnc2s1 -15.8%
Fc1ccc(-c2nc(-c3cccs3)c(-c3cccs3)[nH]2)cc1 -27.4%
Cc1nn(-c2ccccc2)c2c1N(CC(=O)NCc1ccc(N(C)C)cc1)C(=O)CS2 -10.7%
O=C(Nc1nnc(SCc2cc(=O)c3ccccc3[nH]2)s1)c1ccccc1 -33.7%
O=C(NCCOCCO)C(=O)Nc1c2c(nn1-c1ccc(F)cc1)CSC2 -13.3%
Cc1ccc2cc3cc(C(=O)N4CCN(c5cccc(C(F)(F)F)c5)CC4)sc3nc2c1 0.558%
CCC(=O)N1CCc2cc(S(=O)(=O)CCC(=O)N3CCN(c4ccccc4Cl)CC3)ccc21 -4.32%
CN(c1ncnc2c1c(-c1ccccc1)cn2-c1ccc(F)cc1)C1CCCCC1 -17.5%
CCOC(=O)c1cc(-c2ccccc2)n(CCC(=O)Nc2ccc(C(F)(F)F)cc2)c1C -40.3%
Cc1ccc(N(Cc2cccs2)C(=O)c2ccccc2)cc1 -34%
O=C(NCCn1cc(SCc2cccc(F)c2)c2ccccc21)c1cccc(C(F)(F)F)c1 -49.5%
COc1ccc(CCNC(=O)c2c(C)oc3ncn(C)c(=O)c23)c(OC)c1 -2.51%
CC(=O)Nc1ccc(N(C(=O)Cn2nnc3ccccc32)C(C(=O)NCc2ccccc2)c2ccc(C)cc2)cc1 (stereo not drawn) -18.4%
Cc1ccc2[nH]c(=O)c3cc(C(=O)NCCCN4CCC(C)CC4)sc3c2c1 -16.6%
